Source: PubChem BioAssay AID995 (National Center for Advancing Translational Sciences (NCATS), 2007)
Out of some 72,000 compounds screened, about 710 (0.99%) were called active. The shares of active, inactive and inconclusive entries below differ from those in the screen. The call rests on the fitted dose curve; in most records, active means well fitted inhibition curve with a large enough effect; inconclusive means small, poorly fitted or top-dose-only effect; inactive means no such curve, though single readings can be large or run the other way. No potency is given beside an inconclusive call; the fits are too rough.

assay: qHTS Assay for Inhibitors of the ERK Signaling Pathway using a Homogeneous Screening Assay; conditions: HEK293-V1b, vasopressin-stimulated pERK AlphaScreen; activity, negative = inhibition: at 57.5 µM (top of the series) unless noted; further: nearly all actives have a fitted effect of over 55% in size
Outline: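 HEK293 cells stably expressing V1b receptor, preincubated 30 min at 37 °C with compound, then stimulated 5 min with 25 nM vasopressin. Phospho-ERK by AlphaScreen SureFire after 5 h RT; normalized to DMSO and vasopressin; AC50 by Hill fit.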
On the % scale 0 is the no-effect control and ±100 the full control effect; potency means the concentration at half of the fitted maximal effect; tags describe the fitted curve by direction and shape.

SMILES | Potency | activity, negative = inhibition
COc1ccc(N2C(=O)CSC23C(=O)Nc2ccccc23)cc1OC (stereo not drawn) | inconclusive [inhibitor, single point] | 
CN(C)CCSc1nc(N)c2c3c(sc2n1)COC(C)(C)C3 |  | inconclusive: -34.8% [inhibitor]
Oc1ccc(Br)cc1-c1nc2cnccn2c1NC1CCCC1 | active: 31.6 µM | 
CCCOc1ccc(-c2cnc(SCC(N)=O)nc2N)cc1 | inconclusive [inhibitor, single point] | 
CCCCCCC=O | inactive | 
CCOCCN1CCN(c2c(C)c(C)nc3cc(-c4cc(OC)cc(OC)c4)nn23)CC1 | inconclusive [inhibitor, single point] | 
COc1ccc(-n2c(N)c(C(=O)NCC3CCCO3)c3nc4ccccc4nc32)c(OC)c1 (stereo not drawn) | inconclusive [inhibitor, partial curve, poor fit] | 
CCN1CCC2(CC1)C(C#N)=C(N)Oc1c2sc2nc(C)cc(C)c12 | inconclusive [inhibitor, partial curve, poor fit] | 
CN1CCN(c2nc(-c3ccncc3)nc3ccccc23)CC1 | inconclusive [inhibitor, partial curve] | 
COCCn1c(C)cc(C(=O)COC(=O)c2n[nH]c3ccccc23)c1C | inconclusive [inhibitor, single point] | 
c1ccc2c(c1)oc1c(N3CCN(Cc4ccc5c(c4)OCO5)CC3)ncnc12 | inconclusive [inhibitor, partial curve] | 
COCC(C)n1c(C)cc(C(=O)CSc2nc3ccccc3c(=O)[nH]2)c1C (stereo not drawn) | inconclusive [inhibitor, partial curve] | 
CCNc1nc(N)nc(Oc2ccc(C(=O)OC)cc2)n1 | inconclusive [inhibitor, single point] | 
O=C(/C=C/c1ccc(O)cc1)c1c(O)cc(O)cc1O | inactive | 
O=C(CC1SC2=NCCN2C1=O)Nc1ccc(Br)cc1 (stereo not drawn) | inactive | 
O=C(OCCN1CCCCC1)c1c[nH]c2ccccc12 |  | inconclusive: -37.9% [inhibitor]
COc1ccc(-c2cc(C(=O)Nc3c(C)nn(Cc4ccccc4Cl)c3C)no2)cc1OC | inconclusive [inhibitor, single point] | 
c1cncc(CNc2ncnc3ccc(-c4cccnc4)cc23)c1 | inactive | 
O=C(c1cnn2ccccc12)N(Cc1ccco1)C1CCCC1 | inconclusive [inhibitor, partial curve] | 
Cc1cc(Nc2ccc(C)c(F)c2)n2ncnc2n1 | inconclusive [inhibitor, partial curve] | 
CC(C)COC(=O)c1nnsc1NC(=O)Nc1ccccc1 | inactive | 
COc1cccc(Oc2cn[nH]c2-c2ccc(OC)cc2O)c1 | inconclusive [inhibitor, single point] | 
c1ccc(N2CCN(c3nc4cc5c(cc4s3)OCCO5)CC2)cc1 | inactive | 
COc1ccc(NC(=O)CN(C)S(=O)(=O)c2ccccc2)cc1OC | inconclusive [inhibitor, partial curve, poor fit] | 
CCOc1ccc(C(=O)Nc2cc(C)on2)cc1OCC | inconclusive [inhibitor, partial curve, poor fit] | 

SMILES | Potency | activity, negative = inhibition
CCOC(=O)N1CCN(c2nc(-c3ccc(F)cc3)cs2)CC1 | inconclusive [inhibitor, full curve] | 
O=C(CN1CCOCC1)Nc1ccc(-c2nc3ccccc3[nH]2)cc1 | inactive | 
COc1ccc(N2CCN(c3ncnc4c3cnn4-c3ccc(C)cc3C)CC2)cc1 | inconclusive [inhibitor, full curve, poor fit] | 
COc1ccccc1N1CCN(C(=O)CCNS(=O)(=O)c2ccc(Br)s2)CC1 | inconclusive [inhibitor, partial curve] | 
CCc1ccc(-c2nnn(CCC(=O)OC)n2)cc1 | inactive | 
CCN(CC)CCOc1c(Br)ccc2c1sc1nc3n(c(=O)c12)CCC3 | inconclusive [inhibitor, full curve, poor fit] | 
C=CC1=C[C@@H](O)C2OC2C12OCCCO2 (stereo partly drawn) |  | inactive: -16.8% [at 11.5 µM]
O=C1Nc2ccccc2C12OCCCO2 | inconclusive [inhibitor, full curve, poor fit] | 
CCN(CC)C(=O)CSc1nnc(-c2cccs2)n1Cc1ccco1 | inconclusive [inhibitor, single point] | 
COCC(=O)N1CCC2(CCCN(c3cccc(-c4ccccc4)c3)C2)CC1 | inconclusive [inhibitor, single point] | 
CCOc1ccc(CCNC(=O)C2CCN(c3nn4c(=O)cc(C)nc4s3)CC2)cc1 | inconclusive [inhibitor, single point] | 
CC(=NCc1ccc2c(c1)OCO2)C1=C(O)c2ccccc2C1=O | inconclusive [inhibitor, single point] | 
CCOc1ccc(C(=O)Nc2cc(C)on2)cc1 | inactive | 
Cc1cc(=O)oc2cc(OCC(=O)N3CCc4ccccc4C3)ccc12 | inconclusive [inhibitor, partial curve] | 
C=C(C)COc1ccc(-c2n[nH]c(C)c2-c2ccccc2)c(O)c1 | inconclusive [inhibitor, single point] | 
CO[C@H]1COC(=O)[C@H](C)NC(=O)C/C=C\[C@@H](C)[C@H](OC)COC(=O)[C@@H](OCc2ccccc2)/C=C\[C@@H]1C |  | inactive: -4.39% [at 11.5 µM]
CCC(=O)Nc1ccc(C(=O)Cn2nc(C(=O)O)c3ccccc3c2=O)cc1 | inactive | 
Cc1cc2c(c(=O)n1Cc1ccco1)C(c1cccnc1)C(C#N)=C(N)O2 (stereo not drawn) | inactive | 
COc1ccc(CCN2C(=O)C3C4C=CC(C4)C3C2=O)cc1OC (stereo not drawn) | inconclusive [inhibitor, partial curve] | 
COc1cc(C(=O)Nc2cc(C)ccn2)cc(OC)c1OC | inactive | 
COC(=O)N1CCC2(CCN(C(=O)Nc3ccc(OC)cc3)CC2)CC1 | inactive | 
CC(C)CCCC(C)C1CCC2C3CC=C4CC(O)CCC4(C)C3CCC12C (stereo not drawn) | inactive | 
CCOCCCNS(=O)(=O)c1ccc(NC(=O)c2ccccc2)cc1 | inconclusive [inhibitor, partial curve] | 
COc1ccc(C(=O)/C=C/N2CCCCC2)cc1OC | inconclusive [inhibitor, partial curve] | 
Cc1ccc(-c2nc3ncccn3c2Nc2ccc3c(c2)OCO3)o1 | inconclusive [inhibitor, partial curve] | 

SMILES | Potency | activity, negative = inhibition
On1onc2c3cc(-c4ccccc4)nc3ccc21 | active: 25.1 µM | 
O=C1C(O)=C(O)C(=O)C(O)=C1O | inactive | 
CC(=O)N1CCc2cc(S(=O)(=O)NC3CCCc4ccccc43)ccc21 (stereo not drawn) | inconclusive [inhibitor, single point] | 
O=C(NCc1ccco1)c1sc2cccc(F)c2c1Cl | inconclusive [inhibitor, partial curve] | 
CN(Cc1ccccc1)c1oc(COc2ccccc2F)nc1C#N | inconclusive [inhibitor, partial curve] | 
O=C(COc1ccccc1)Nc1ccc2c(c1)nc1n2CCSC1 | inactive | 
CC1(C)Cc2nc3oc4c(N(CCO)Cc5ccccc5)ncnc4c3cc2CO1 | inconclusive [inhibitor, single point] | 
CCOc1ccc(C(=O)Nc2cc(OC)ccc2OC)cc1 | inconclusive [inhibitor, single point] | 
CCCOc1ccc(CSc2ncn[nH]2)cc1 | inconclusive [inhibitor, full curve, poor fit] | 
O=S(=O)(NC1CC2CCC1C2)c1ccc2c(c1)OCCO2 (stereo not drawn) | active: 25.1 µM | 
Cc1ccc(-n2c(N)c(-c3nc4ccccc4n3C)sc2=S)cc1 | inactive | 
CCC(=O)Oc1ccc2c(C)c(Cl)c(=O)oc2c1 | inconclusive [inhibitor, single point] | 
O=C(COc1ccc(Br)cc1)Nc1ccc(-c2nnc(-c3ccco3)o2)cc1 | inconclusive [inhibitor, full curve, poor fit] | 
CCOC(=O)c1ccc(NC(=O)CCc2nc(-c3ccccc3)no2)cc1 | active: 15.8 µM | 
CCc1ccccc1Nc1nc(N)nc(CSCC(=O)c2cc(C)n(C)c2C)n1 | inconclusive [inhibitor, partial curve] | 
Cc1cc(C)c(S(=O)(=O)n2nc(C)c(Br)c2C)c(C)c1 | inconclusive [inhibitor, partial curve] | 
C=CCOC(=O)c1sc(NC(=O)c2ccco2)nc1C | inactive | 
O=C(Nc1cccc(F)c1)N1CC=C(n2c(=O)[nH]c3ccccc32)CC1 | active: 20 µM | 
COCCn1c(=O)c(-c2cccc(C#N)c2)nc2cnc(Oc3ccc(OC)cc3)nc21 | inconclusive [inhibitor, partial curve] | 
CN1CCCC[C@@H]1CCN1CCCCC1 |  | inactive: -1.66% [at 11.5 µM]
O=[N+]([O-])c1cccc(/C=N\Nc2ccc3ccccc3n2)c1O |  | inactive: -25.4% [at 11.5 µM]
COc1ccc(-c2noc(CCC(=O)Nc3ccc(C)c(C)c3)n2)cc1 | inconclusive [inhibitor, single point] | 
COc1cccc(Nc2ncc3nc(C)c(=O)n(CCC#N)c3n2)c1 | inconclusive [inhibitor, full curve] | 
